# Data taken from PubChem BioAssay AID938 (National Center for Advancing Translational Sciences (NCATS), 2007).
# Out of some 73,000 compounds screened, about 1,800 (2.5%) were called active. The inconclusive results got no clear call from the source; some entries with a clear call stand among them for comparison. Calls follow the shape of the dose curve; as a rule, active = well fitted activation curve with a large enough effect; inconclusive = small, poorly fitted or top-dose-only effect; inactive = no such curve, though single readings can be large or run the other way. No potency is given beside an inconclusive call; the fits are too rough.
# Test: qHTS Assay for Agonists of the Thyroid Stimulating Hormone Receptor: Activators of Intracellular cAMP Concentrations in Parental HEK 293; also: nearly all actives have a fitted effect of over 55% in size; as to activation: % of control where 0% means no effect
# Conditions: parental HEK293 CNG cAMP sensor, membrane potential fluorescence; activation: at 57.1 µM (top of the series) unless noted
# Outline: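 Parental HEK 293 cells stably expressing a cAMP-gated CNG channel were loaded with membrane potential dye containing 100 uM RO 20-1724 for 60 min. Compound added for 30 min; depolarization read as fluorescence intensity at 590 nm.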
# Potency is read from the fitted curve at half-maximal effect; tags tell the direction and shape of the fitted curve.
SMILES,Potency,activation
CCCCOc1cccc(OCCCC)c1C(=O)Nc1cc(C)on1,active: 2 µM,
COc1ccc(-c2nc(C#N)c(NCCN(C)C)o2)cc1,,inactive: -1.93%
CC(=O)c1c(C)n(-c2ccc(N(C)C)cc2)c2ccc(OCC(N)=O)cc12,"inconclusive [activator, full curve]",
CCNc1ncc2nc(C)c(=O)n(CCOC)c2n1,"inconclusive [activator, single point]",
c1coc(Cn2nnnc2CN2CCN(C3CCCC3)CC2)c1,,inconclusive: 31.7% [activator]
O=C(CSc1ccc2c(c1)OCCO2)Nc1ccc(Cl)cn1,"inconclusive [activator, partial curve]",
Cn1c(NC(=O)c2ccc3c(c2)OCO3)cc(=O)n(C)c1=O,"inconclusive [activator, single point]",
Cc1nonc1NC(=O)c1ccc(Cl)c(S(=O)(=O)N2CCCCC2)c1,"inconclusive [activator, single point]",
Cc1ccccc1-c1nnc(-c2ccc(Cl)cc2)o1,"inconclusive [activator, partial curve]",
FC(F)(F)c1ccc(N2CCN(c3ncnc4c3nnn4Cc3ccccc3)CC2)nc1,"inconclusive [activator, partial curve]",
CCOC(=O)C1=C(N)N2C(=O)C(C)SC2=C(C(=O)OCC)C1c1ccccc1 (configuration not stated),"inconclusive [activator, partial curve]",
Cc1cc(C)nc(-n2nc(C)cc2NC(=O)CN2CCCC(C)C2)n1 (configuration not stated),"inconclusive [activator, partial curve]",
Cc1cc(NC(=O)c2c(-c3ccccc3Cl)noc2C)no1,,inactive: 7.82%
O=C(O)c1ccc(Cl)c(S(=O)(=O)Nc2ccccc2F)c1,,inactive: -0.669%
COc1ccc(S(=O)(=O)N(C)c2ccc(OCC(=O)Nc3cc(C)on3)cc2)cc1,,inactive: 21.8%
CN(C)S(=O)(=O)c1cc(C(=O)NCCCn2ccc3ccccc32)ccc1Cl,active: 25.1 µM,
CCOC(=O)c1ccc(N2C(=O)c3n[nH]c(C)c3C2c2ccc(O)cc2)cc1 (configuration not stated),,inactive: 2.76%
O=C(NCc1ccco1)C(c1cccs1)N(Cc1ccccc1)C(=O)Cn1nnc2ccccc21 (configuration not stated),active: 10 µM,
COCCNC(=O)c1csc2c1CCCC2,,inactive: 3.32%
CN1CCN(c2nc3c(c(=O)[nH]c(=O)n3C)n2Cc2cccc3ccccc23)CC1,"inconclusive [activator, single point]",
COC(=O)C1=CN(C2CC2)C=C(C(=O)OC)C1c1ccc(C(=O)OC)cc1,"inconclusive [activator, partial curve]",
O=C(C1CC1c1ccccc1)N1CCN(c2cccc(Cl)c2)CC1 (configuration not stated),active: 31.6 µM,
Cc1ccc(S(=O)(=O)NCc2cccc([N+](=O)[O-])c2)cc1,,inactive: 2.45% [at 11.4 µM]
CCOC(=O)C1CCN(C(=O)COc2ccc(S(=O)(=O)NC(C)(C)C)cc2)CC1,"inconclusive [activator, partial curve]",

SMILES,Potency,activation
CCc1ccc(-c2cn(-c3nc(C)cc(C)n3)c(=N)o2)cc1,active: 25.1 µM,
Cc1ccc2cc(C(c3nnnn3C3CCCC3)N(Cc3cccnc3)Cc3ccco3)c(=O)[nH]c2c1 (configuration not stated),"inconclusive [activator, partial curve]",
Cc1cc(=O)[nH]c(-n2nc(C)c(Oc3ccccc3O)c2C)n1,"inconclusive [activator, single point]",
Brc1ccc(-c2cnc(-c3cccs3)o2)cc1,"inconclusive [activator, single point]",
Cn1cccc1Cc1nnc(SCC(=O)Nc2ccccc2F)n1-c1ccc(F)cc1,"inconclusive [activator, single point]",
CCCc1cc(C(N)=O)c(NC(=O)c2ccco2)s1,,inactive: -1.93%
COc1cc(NC(=O)c2ccccc2)cc(OC)c1,,inactive: 27.7%
Nn1c(SCc2csc(-c3ccccc3)n2)nnc1-c1cccs1,active: 25.1 µM,
Nc1nc(SCC(=O)c2ccc(Br)cc2)c2[nH]cnc2n1,,inactive: -3.25% [at 11.4 µM]
CCc1nnc2c3cnn(-c4ccccc4)c3ncn12,"inconclusive [activator, single point]",
CCN(CC)S(=O)(=O)c1cccc(-c2nnc(SCC(=O)c3cc(C)n(C)c3C)o2)c1,active: 15.8 µM,
COc1ccccc1NC(=O)Cn1c(CN2CCCCC2)nc2ccccc2c1=O,"inconclusive [activator, single point]",
CCc1nnc(NC(=O)CSc2nnc(-c3ccoc3C)n2-c2cccc(C)c2)s1,"inconclusive [activator, single point]",
Cc1ccc(C)c(NC(=O)CSc2nnc([C@@H]3CCCN3C(=O)OC(C)(C)C)o2)c1,"inconclusive [activator, single point]",
O=C(COc1ccccc1)Nc1ccccc1N1CCCCC1,"inconclusive [activator, single point]",
CCN1C(=O)[C@H]2[C@H]3[C@H](O)[C@H](O)C/C(=N/NC(=O)OCc4ccc(OC)cc4)[C@H]3CC[C@@H]2C1=O,,inactive: 11% [at 11.4 µM]
C/C(CCN1CCCc2nc(C)c(C)cc21)=N\O[C@@H](C)c1cc(-c2c(C)cc(C)cc2C)no1,,inactive: 12.6% [at 11.4 µM]
CCn1c(/N=C/c2c[nH]c3ccccc23)nc2ccccc21,,inactive: 10.6%
CCCNC(=O)CS(=O)Cc1nc(-c2ccc(OC)cc2)oc1C (configuration not stated),"inconclusive [activator, single point]",
CC(=O)c1cccc(NC(=O)c2cnn3ccccc23)c1,,inactive: 11.3%
CCC[C@@H]1C[C@@]1(CCC)[C@@H](NC(=O)Oc1ccccc1)c1ccc(C(=O)OC)cc1,,inactive: -1.74%
CC1=CC(C)(C)N(C(=O)CN2C(=O)c3ccccc3C2=O)c2ccccc21,"inconclusive [activator, partial curve]",
Cc1cc(C)n(-c2nc3ccccc3c(=O)n2OCCOc2ccccc2)n1,"inconclusive [activator, single point]",
